# Test results: the supplement of paper PMC8728848
# This is one part of a sample in which the strongest signals are shown more often than they occur.
# Experiments:
# Test in all cases: glycan array binding signal (z-score within array); higher = stronger binding
# Settings in all cases: glycan notation: IUPAC condensed, linker removed
# GlcNAc(b1-3)GalNAc = test system: GlcNAc(b1-3)GalNAc
# Outline: (§1)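 Glycan array binding is given as a within-array Z-score, which can be read as non-binding when negative. The arrays, 3228 of them, came from the Consortium for Functional Glycomics database and were retained only where the protein sequence was available. Z-scores were averaged across arrays of the same protein sequence at different concentrations or buffers and across linkers.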
# [1] = test system: GlcNAc(b1-3)Gal(b1-4)GlcNAc(b1-3)Gal(b1-4)GlcNAc(b1-3)Gal(b1-4)GlcNAc(b1-3)Gal(b1-4)GlcNAc(b1-2)Man(a1-3)[GlcNAc(b1-3)Gal(b1-4)GlcNAc(b1-3)Gal(b1-4)GlcNAc(b1-3)Gal(b1-4)GlcNAc(b1-3)Gal(b1-4)GlcNAc(b1-2)Man(a1-6)]Man(b1-4)GlcNAc(b1-4)GlcNAc
# Outline: as §1
# [2] = test system: GlcNAc(b1-3)Gal(b1-4)GlcNAc(b1-3)Gal(b1-4)GlcNAc(b1-3)Gal(b1-4)GlcNAc(b1-3)Gal(b1-4)GlcNAc(b1-2)Man(a1-3)[GlcNAc(b1-3)Gal(b1-4)GlcNAc(b1-3)Gal(b1-4)GlcNAc(b1-3)Gal(b1-4)GlcNAc(b1-3)Gal(b1-4)GlcNAc(b1-2)Man(a1-6)]Man(b1-4)GlcNAc(b1-4)[Fuc(a1-6)]GlcNAc
# Outline: as §1
# GlcNAc(b1-3)Gal = test system: GlcNAc(b1-3)Gal
# Outline: as §1
# GlcNAc(b1-4)GlcNAc = test system: GlcNAc(b1-4)GlcNAc
# Outline: as §1
# [3] = test system: GlcNAc(b1-3)Gal(b1-4)GlcNAc(b1-3)Gal(b1-4)GlcNAc(b1-3)Gal(b1-4)GlcNAc(b1-3)Gal(b1-4)GlcNAc(b1-2)[GlcNAc(b1-3)Gal(b1-4)GlcNAc(b1-3)Gal(b1-4)GlcNAc(b1-3)Gal(b1-4)GlcNAc(b1-3)Gal(b1-4)GlcNAc(b1-6)]Man(a1-6)[GlcNAc(b1-3)Gal(b1-4)GlcNAc(b1-3)Gal(b1-4)GlcNAc(b1-3)Gal(b1-4)GlcNAc(b1-3)Gal(b1-4)GlcNAc(b1-2)Man(a1-3)]Man(b1-4)GlcNAc(b1-4)[Fuc(a1-6)]GlcNAc
# Outline: as §1
substance,measurement,setting,value
M-Ficolin A256V (Homo sapiens) (chain not printed),glycan array binding signal (z-score),GlcNAc(b1-3)GalNAc,-0.159
Gal 3 (Homo sapiens) (chain not printed),glycan array binding signal (z-score),[1],3.94
same,glycan array binding signal (z-score),[2],6.09
same,glycan array binding signal (z-score),GlcNAc(b1-3)Gal,-0.318
VWF (Homo sapiens) (chain not printed),glycan array binding signal (z-score),GlcNAc(b1-4)GlcNAc,-0.308
Thrombomodulin Extracellular (Homo sapiens) (chain not printed),glycan array binding signal (z-score),[3],3.09
same,glycan array binding signal (z-score),GlcNAc(b1-3)Gal,-0.293
same,glycan array binding signal (z-score),GlcNAc(b1-4)GlcNAc,1.96
